Out of some 310,000 compounds screened, about 14,000 (4.5%) showed an effect of 50% or more. The effect is printed as a negative number. The list shows a part of the results.
Molecular target: human ether-à-go-go-related gene (hERG) potassium channel (human, UniProt Q12809)
Assay: primary screen, population patch clamp on CHO cells stably expressing hERG
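Note: peak tail current of the secondary pulse compared with the same well before compound.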

human ether-à-go-go-related gene (hERG) potassium channel, sequence (Q12809 whole entry, looked up): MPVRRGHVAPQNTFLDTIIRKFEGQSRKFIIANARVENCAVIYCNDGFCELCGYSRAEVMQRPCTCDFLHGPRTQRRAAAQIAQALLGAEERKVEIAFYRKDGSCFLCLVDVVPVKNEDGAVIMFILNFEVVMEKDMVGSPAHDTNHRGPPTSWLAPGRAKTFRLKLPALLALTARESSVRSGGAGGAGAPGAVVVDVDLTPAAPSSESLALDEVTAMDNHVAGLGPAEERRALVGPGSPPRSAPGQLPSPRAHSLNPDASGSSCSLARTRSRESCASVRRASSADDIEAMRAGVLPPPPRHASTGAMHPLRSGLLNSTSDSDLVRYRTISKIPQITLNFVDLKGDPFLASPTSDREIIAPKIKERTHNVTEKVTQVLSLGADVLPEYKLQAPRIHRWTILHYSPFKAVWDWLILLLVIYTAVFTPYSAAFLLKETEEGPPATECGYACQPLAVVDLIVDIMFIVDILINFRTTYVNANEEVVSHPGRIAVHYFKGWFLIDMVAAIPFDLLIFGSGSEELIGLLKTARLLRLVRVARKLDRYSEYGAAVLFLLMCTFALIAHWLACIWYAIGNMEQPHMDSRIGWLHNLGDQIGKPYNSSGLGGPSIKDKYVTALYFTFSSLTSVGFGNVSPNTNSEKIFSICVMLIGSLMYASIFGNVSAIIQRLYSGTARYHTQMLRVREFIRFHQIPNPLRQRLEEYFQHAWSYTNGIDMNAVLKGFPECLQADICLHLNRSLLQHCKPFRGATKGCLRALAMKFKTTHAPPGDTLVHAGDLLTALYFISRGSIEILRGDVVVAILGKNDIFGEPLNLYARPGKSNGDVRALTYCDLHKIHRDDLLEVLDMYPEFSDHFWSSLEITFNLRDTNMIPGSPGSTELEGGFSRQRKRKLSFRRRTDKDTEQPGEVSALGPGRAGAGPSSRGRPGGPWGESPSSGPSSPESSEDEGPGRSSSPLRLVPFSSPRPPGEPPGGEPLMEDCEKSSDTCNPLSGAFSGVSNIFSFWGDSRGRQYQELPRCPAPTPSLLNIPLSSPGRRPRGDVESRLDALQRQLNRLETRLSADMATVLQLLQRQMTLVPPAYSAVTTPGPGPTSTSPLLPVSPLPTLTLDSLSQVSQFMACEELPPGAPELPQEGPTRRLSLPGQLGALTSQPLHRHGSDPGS

Row | SMILES | hERG current change (%, negative = inhibition) at 10uM
1 | O=C(N/N=C/c1sc(=O)[nH]c1-[n+]1ccccc1)c1ccccc1[O-] | 5.35%
2 | O=C(Oc1cccc(N2C(=O)CCC2=O)c1)C1CC(=O)N(c2ccc(F)cc2)C1 (centres unmarked) | 7.76%
3 | Clc1cccc(Oc2cnns2)c1Cl | -5.81%
4 | COc1cc(OC)cc(C(=O)NNC(=O)CCc2ccccc2)c1 | 28.9%
5 | Cc1ccccc1Cn1ccc(NC(=O)CCSc2nc(-c3ccco3)cc(C(F)(F)F)n2)n1 | 9.05%
6 | O=C(Nc1cccc2cccnc12)c1ccc2c(c1)OCCO2 | 9.31%
7 | O=S(=O)(c1ccccc1)N1N=C(c2cccs2)CC1c1cccc(O)c1 (centres unmarked) | 19%
8 | CCN(c1ccccc1)S(=O)(=O)c1ccc(N2CCN(c3ccccc3O)CC2)nc1 | -0.538%
9 | O=C(NNc1ccccc1)C(=O)NNS(=O)(=O)c1ccc([N+](=O)[O-])cc1 | -19.2%
10 | CCC(=O)NC(=S)Nc1ccccc1C(F)(F)F | 6.88%
11 | COc1cc(/C=N/NC(N)=S)ccc1OCC(=O)Nc1ccc(C)cc1 | 5.47%
12 | Nc1cc(N)nc(SCC(=O)N2CCc3ccccc32)n1 | 6.65%
13 | CC(=O)Nc1ccccc1C(=O)N1CC(C)OC(C)C1 (centres unmarked) | 11.6%
14 | CN1C(=O)CC2(CC(=O)N(Cc3ccccc3)C2)C1=O (centres unmarked) | 9.7%
15 | CCc1cccc(NC(=O)COC(=O)c2cc([N+](=O)[O-])ccc2N2CCOCC2)c1 | -7.99%
16 | Cc1ccc(S(=O)(=O)n2nc(C)cc2N)cc1 | -1.2%
17 | CCc1cccc2c(C(=O)CSc3nncn3-c3ccc(OC)cc3)c[nH]c12 | 24.7%
18 | COc1ccc(C(=O)NC(=S)NC(C)(C)C)cc1Br | 8.36%
19 | COc1ccccc1N1CCN(c2cc(N3CCCC3)nc(C)n2)CC1 | -65.3%
20 | Brc1ccc(C2=Nn3c(Cn4nnc5ccccc54)nnc3SC2)cc1 | 13.7%
21 | NS(=O)(=O)c1ccc(NC2=CC(=O)C(=O)c3ccccc32)cc1 | 10.6%
22 | CS(=O)(=O)N1CCCC(C(=O)Nc2ccccc2C(F)(F)F)C1 (centres unmarked) | 15%

Row | SMILES | hERG current change (%, negative = inhibition) at 10uM
23 | CC(NC(=O)Nc1ccc(Cl)cc1)c1ccccc1 (centres unmarked) | 20.2%
24 | Cc1cc(C)nc(SC2CCCCC2NS(=O)(=O)c2ccccc2)n1 (centres unmarked) | -18.5%
25 | COc1ccc(C(O)c2nc3ccccc3n2C(C)C)cc1 (centres unmarked) | -22.9%
26 | COc1ccccc1NC(=O)NCCCCc1ccccc1 | -1.68%
27 | COC(=O)c1c(N)sc2c1CCN(c1ncc(C(F)(F)F)cc1Cl)C2 | 0.549%
28 | N#Cc1ccc(C(=O)N(Cc2ccco2)c2c(N)n(Cc3ccccc3)c(=O)[nH]c2=O)cc1 | 4.78%
29 | CCc1ccc(CN2CCC(n3nccc3NC(=O)c3ccccc3Cl)CC2)cc1 | -84.4%
30 | O=C(c1ccc(Cl)c(S(=O)(=O)N2CCOCC2)c1)N(c1ccccn1)C1CCCCC1 | -9.25%
31 | NS(=O)(=O)c1ccc(NC(=O)Nc2ccc(S(N)(=O)=O)cc2)cc1 | 20.2%
32 | O=C(Nc1ccc(-c2noc(-c3ccccc3F)n2)cc1)c1cccs1 | 9.29%
33 | COc1ccc(OC)c2[nH]c(=O)c(CCNC(=S)NC(C)(C)C)cc12 | -46.6%
34 | CCCCOC(=O)c1ccc(NC(=O)Nc2ccc(OC)c(OC)c2)cc1 | 13.5%
35 | Cn1cc(C(=O)OCC(=O)NC2CCCC2)c2ccccc21 | 7.9%
36 | O=C(NNC1=NCCC1)c1cccc(Br)c1 | 8.03%
37 | Br.CCCCCCN1Cc2ccccc2C1 | -39.3%
38 | Cc1ccc(Nc2nnc(SC(C)C(=O)NCC3CCCO3)s2)cc1C (centres unmarked) | -12%
39 | CCC1CCCN1Cn1cnc2c([nH]c3ccc(OC)cc32)c1=O (centres unmarked) | -62.6%
40 | O=c1cc(COc2ccc(Cl)c(Cl)c2)nc2sccn12 | 19.5%
41 | CCC(C)NC(=O)C1=CCN(S(=O)(=O)c2ccc(C)cc2)CC1 (centres unmarked) | 3.14%
42 | CN(C(=O)COC(=O)CNS(=O)(=O)/C=C/c1ccccc1)C1CCS(=O)(=O)C1 (centres unmarked) | 23.3%
43 | COc1ccc(C2CC(=O)c3cnn(-c4nc(C)cc(C)n4)c3C2)cc1OC (centres unmarked) | -4.84%
44 | Cc1ccc(S(=O)(=O)/N=C(/Nc2ccc(F)cc2F)c2ccccc2)cc1 | 12.9%

From paper PMC4336329 (PLoS ONE, 2015)
